Results taken from the supplement of paper PMC4604168 (melanoma cell lines).
The list shows a part of the results. Single values are uncertain, as repeats are few or missing.
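Further: cell number obtained by counting DAPI-stained nuclei in high-throughput microscope images with image analysis software, screen run in 1,536-well plates.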

What follows are compounds tested on MEL-HO (assay: cell count relative to DMSO control; melanoma cells; higher = more viable cells). Settings: library dose: low library concentration; 72 h.
`C[C@]12O[C@H](C[C@]1(O)CO)n1c3ccccc3c3c4c(c5c6ccccc6n2c5c31)CNC4=O` [Lestaurtinib] + Cc1cc(Nc2cc(N3CCN(C)CC3)nc(/C=C/c3ccccc3)n2)n[nH]1 [ENMD2076] (first compound 0.004 µM, partner dose 0.04 µM) gave a cell count of 105%. `C[C@]12O[C@H](C[C@]1(O)CO)n1c3ccccc3c3c4c(c5c6ccccc6n2c5c31)CNC4=O` [Lestaurtinib] + C#Cc1cccc(Nc2ncnc3cc(OCCOC)c(OCCOC)cc23)c1 [erlotinib] (first compound 0.004 µM, partner dose 0.8 µM) was tested, and the cell count was 88.8%. For `C[C@]12O[C@H](C[C@]1(O)CO)n1c3ccccc3c3c4c(c5c6ccccc6n2c5c31)CNC4=O` [Lestaurtinib] + Nc1ncn([C@H]2C[C@H](O)[C@@H](CO)O2)c(=O)n1 [decitabine] (first compound 0.004 µM, partner dose 0.1 µM), the cell count was 77.2%. In the case of `C[C@]12O[C@H](C[C@]1(O)CO)n1c3ccccc3c3c4c(c5c6ccccc6n2c5c31)CNC4=O` [Lestaurtinib] + COCC[n+]1c2c(n(Cc3cnccn3)c1C)C(=O)c1ccccc1C2=O [YM155] (first compound 0.004 µM, partner dose 0.0004 µM), the cell count is reported as 113%. Work on `C[As](C)SC[C@H](NC(=O)CC[C@H](N)C(=O)O)C(=O)NCC(=O)O` [Darinaparsin] + COC(=O)c1sccc1S(=O)(=O)Nc1ccc(Nc2ccccc2)cc1OC [GSK0660] (first compound 0.4 µM, partner dose 1 µM) yielded a cell count of 80.4%. `C[C@]12O[C@H](C[C@]1(O)CO)n1c3ccccc3c3c4c(c5c6ccccc6n2c5c31)CNC4=O` [Lestaurtinib] + C[C@]1(c2nc3c(C(N)=O)cccc3[nH]2)CCCN1 [Veliparib] (first compound 0.004 µM, partner dose 1.4 µM) was tested, and the cell count was 107%. `C[As](C)SC[C@H](NC(=O)CC[C@H](N)C(=O)O)C(=O)NCC(=O)O` [Darinaparsin] + O=C(Oc1ccc([N+](=O)[O-])cc1)N1CCC(C(O)(c2ccc3c(c2)OCO3)c2ccc3c(c2)OCO3)CC1 [JZL184] (first compound 0.4 µM, partner dose 1 µM) was tested, and the cell count was 105%.

Each compound was assayed on MZ2-MEL in the same assay as above. Settings: library dose: low library concentration; 72 h.
Compound `C[C@]12O[C@H](C[C@]1(O)CO)n1c3ccccc3c3c4c(c5c6ccccc6n2c5c31)CNC4=O` [Lestaurtinib] + OCc1c[nH]c2ccccc12 [Indole-3-carbinol] (first compound 0.004 µM, partner dose 0.8 µM) has a cell count of 105%. `C[C@]12O[C@H](C[C@]1(O)CO)n1c3ccccc3c3c4c(c5c6ccccc6n2c5c31)CNC4=O` [Lestaurtinib] + CO[C@H]1C[C@@H]2CC[C@@H](C)[C@@](O)(O2)C(=O)C(=O)N2CCCC[C@H]2C(=O)O[C@H]([C@H](C)C[C@@H]2CC[C@@H](OCCO)[C@H](OC)C2)CC(=O)[C@H](C)/C=C(\C)[C@@H](O)[C@@H](OC)C(=O)[C@H](C)C[C@H](C)/C=C/C=C/C=C/1C [everolimus] (first compound 0.004 µM, partner dose 0.02 µM) was tested, and the cell count was 79.2%. In the case of `C[C@]12O[C@H](C[C@]1(O)CO)n1c3ccccc3c3c4c(c5c6ccccc6n2c5c31)CNC4=O` [Lestaurtinib] + Cn1c(=O)n(-c2ccc(C(C)(C)C#N)cc2)c2c3cc(-c4cnc5ccccc5c4)ccc3ncc21 [NVP-BEZ235] (first compound 0.004 µM, partner dose 0.004 µM), the cell count is reported as 90.9%. `C[C@]12O[C@H](C[C@]1(O)CO)n1c3ccccc3c3c4c(c5c6ccccc6n2c5c31)CNC4=O` [Lestaurtinib] + Nc1ccn([C@@H]2O[C@H](CO)[C@@H](O)C2(F)F)c(=O)n1 [gemcitabine] (first compound 0.004 µM, partner dose 0.0004 µM) gave a cell count of 91.7%. `Cn1cc(C2=C(c3cn(C4CCN(Cc5ccccn5)CC4)c4ccccc34)C(=O)NC2=O)c2ccccc21` [Enzastaurin] + CO[C@H]1C[C@@H]2CC[C@@H](C)[C@@](O)(O2)C(=O)C(=O)N2CCCC[C@H]2C(=O)O[C@H]([C@H](C)C[C@@H]2CC[C@@H](OCCO)[C@H](OC)C2)CC(=O)[C@H](C)/C=C(\C)[C@@H](O)[C@@H](OC)C(=O)[C@H](C)C[C@H](C)/C=C/C=C/C=C/1C [everolimus] (first compound 0.8 µM, partner dose 0.02 µM) was tested, and the cell count was 83%. `C[C@]12O[C@H](C[C@]1(O)CO)n1c3ccccc3c3c4c(c5c6ccccc6n2c5c31)CNC4=O` [Lestaurtinib] + Nc1cccc2c1CN(C1CCC(=O)NC1=O)C2=O [lenalidomide] (first compound 0.004 µM, partner dose 1 µM) gave a cell count of 99.6%. `C[C@]12O[C@H](C[C@]1(O)CO)n1c3ccccc3c3c4c(c5c6ccccc6n2c5c31)CNC4=O` [Lestaurtinib] + CN(c1ncccc1CNc1nc(Nc2ccc3c(c2)CC(=O)N3)ncc1C(F)(F)F)S(C)(=O)=O [PF562271] (first compound 0.004 µM, partner dose 0.08 µM) gave a cell count of 91.2%. Compound `C[C@]12O[C@H](C[C@]1(O)CO)n1c3ccccc3c3c4c(c5c6ccccc6n2c5c31)CNC4=O` [Lestaurtinib] + CC(=O)O[C@@]12CO[C@@H]1C[C@H](O)[C@@]1(C)C(=O)[C@H](O)C3=C(C)[C@@H](OC(=O)[C@H](O)[C@@H](NC(=O)OC(C)(C)C)c4ccccc4)C[C@@](O)([C@@H](OC(=O)c4ccccc4)[C@H]21)C3(C)C [Docetaxel] (first compound 0.004 µM, partner dose 0.0001 µM) has a cell count of 82.3%. `C[As](C)SC[C@H](NC(=O)CC[C@H](N)C(=O)O)C(=O)NCC(=O)O` [Darinaparsin] + O=C(Nc1ccccc1)c1cc([N+](=O)[O-])ccc1Cl [GW9662] (first compound 0.4 µM, partner dose 2 µM) showed a cell count of 98.8%. `C[As](C)SC[C@H](NC(=O)CC[C@H](N)C(=O)O)C(=O)NCC(=O)O` [Darinaparsin] + Cc1cc(SCc2sc(-c3ccc(C(F)(F)F)c(F)c3)nc2C)ccc1OCC(=O)O [GW0742] (first compound 0.4 µM, partner dose 2 µM) showed a cell count of 103%. For `C[C@]12O[C@H](C[C@]1(O)CO)n1c3ccccc3c3c4c(c5c6ccccc6n2c5c31)CNC4=O` [Lestaurtinib] + CCCS(=O)(=O)Nc1ccc(F)c(C(=O)c2c[nH]c3ncc(Cl)cc23)c1F [PLX4720] (first compound 0.004 µM, partner dose 0.08 µM), the cell count was 91.1%. Work on `C[C@]12O[C@H](C[C@]1(O)CO)n1c3ccccc3c3c4c(c5c6ccccc6n2c5c31)CNC4=O` [Lestaurtinib] + O=C(O)[C@@H]1[O][Sb](=[O])([O][Sb]2(=[O])[O][C@H]([C@H](O)CO)[C@H](O)[C@H](C(=O)O)[O]2)[O][C@H]([C@H](O)CO)[C@@H]1O [stibogluconate] (first compound 0.004 µM, partner dose 2 µM) yielded a cell count of 91%. With `C[C@]12O[C@H](C[C@]1(O)CO)n1c3ccccc3c3c4c(c5c6ccccc6n2c5c31)CNC4=O` [Lestaurtinib] + O=C(O)c1ccc2c(c1)nc(Nc1cccc(Cl)c1)c1ccncc12 [CX4945] (first compound 0.004 µM, partner dose 0.4 µM) the cell count was 97.1%. `C[As](C)SC[C@H](NC(=O)CC[C@H](N)C(=O)O)C(=O)NCC(=O)O` [Darinaparsin] + O=C1NC(=O)/C(=C/c2ccc(-c3ccc(F)cc3O)o2)S1 [AS252424] (first compound 0.4 µM, partner dose 1 µM) was tested, and the cell count was 98.5%. `C[C@]12O[C@H](C[C@]1(O)CO)n1c3ccccc3c3c4c(c5c6ccccc6n2c5c31)CNC4=O` [Lestaurtinib] + CC(C)C[C@H](NC(=O)[C@H](Cc1ccccc1)NC(=O)c1cnccn1)B(O)O [Bortezomib] (first compound 0.004 µM, partner dose 0.001 µM) gave a cell count of 94.4%. `C[C@]12O[C@H](C[C@]1(O)CO)n1c3ccccc3c3c4c(c5c6ccccc6n2c5c31)CNC4=O` [Lestaurtinib] + N.N.[Cl][Pt][Cl] [cisplatin] (first compound 0.004 µM, partner dose 1.6 µM) gave a cell count of 101%. Compound `C[C@]12O[C@H](C[C@]1(O)CO)n1c3ccccc3c3c4c(c5c6ccccc6n2c5c31)CNC4=O` [Lestaurtinib] + NC1(c2ccc(-c3nc4ccn5c(=O)[nH]nc5c4cc3-c3ccccc3)cc2)CCC1 [MK2206] (first compound 0.004 µM, partner dose 0.4 µM) has a cell count of 93.4%. Compound `C[C@]12O[C@H](C[C@]1(O)CO)n1c3ccccc3c3c4c(c5c6ccccc6n2c5c31)CNC4=O` [Lestaurtinib] + C[C@]1(O)C[C@@H](c2nc(-c3ccc4ccc(-c5ccccc5)nc4c3)c3c(N)nccn32)C1 [OSI906] (first compound 0.004 µM, partner dose 0.4 µM) has a cell count of 94%. `C[C@]12O[C@H](C[C@]1(O)CO)n1c3ccccc3c3c4c(c5c6ccccc6n2c5c31)CNC4=O` [Lestaurtinib] + C=C(c1ccc(C(=O)O)cc1)c1cc2c(cc1C)C(C)(C)CCC2(C)C [Bexarotene] (first compound 0.004 µM, partner dose 2 µM) gave a cell count of 113%.
